No constants are given. Whether binding was seen depends on the method and setting. In cells and extracts the contact can be indirect. Some binding calls cover weakened binding; strength is not graded here. Where a sequence is shown, tags or fusion partners need not be part of it. Each block holds one binder with its values, some of them ahead of it.
Key:
HIG2-FLAG WT (human) = target: T1, HIG2-FLAG WT (human) (UniProt Q9Y5L2); experiment: co-IP; HeLa cells co-transfected with Myc-ATGL and HIG2-FLAG WT or ∆7–11; immunoprecipitation by anti-FLAG gels, blots with anti-FLAG and anti-Myc; lysis buffer 50 mM Tris-HCl pH 7.4, 150 mM NaCl, 1% Triton X-100, 1 mM DTT, 4 hr at 4°C
T1 sequence: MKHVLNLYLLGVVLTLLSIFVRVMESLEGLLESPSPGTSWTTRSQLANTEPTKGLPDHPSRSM

HIG2-FLAG ∆7–11 (human) = target: T2, HIG2-FLAG ∆7–11 (human) (UniProt Q9Y5L2); experiment: as above
T2 sequence: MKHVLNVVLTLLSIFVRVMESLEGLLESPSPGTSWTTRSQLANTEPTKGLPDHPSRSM

[1] = target: T3, FLAG-ATGL (adipose triglyceride lipase) (not stated (human or mouse cDNA cloned)) (UniProt Q8BJ56); experiment: co-IP; same anti-FLAG immunoprecipitates of FLAG-ATGL from hypoxic HCT116 cells; immunoblotting with anti-HIG2 and anti-FLAG antibodies
T3 sequence: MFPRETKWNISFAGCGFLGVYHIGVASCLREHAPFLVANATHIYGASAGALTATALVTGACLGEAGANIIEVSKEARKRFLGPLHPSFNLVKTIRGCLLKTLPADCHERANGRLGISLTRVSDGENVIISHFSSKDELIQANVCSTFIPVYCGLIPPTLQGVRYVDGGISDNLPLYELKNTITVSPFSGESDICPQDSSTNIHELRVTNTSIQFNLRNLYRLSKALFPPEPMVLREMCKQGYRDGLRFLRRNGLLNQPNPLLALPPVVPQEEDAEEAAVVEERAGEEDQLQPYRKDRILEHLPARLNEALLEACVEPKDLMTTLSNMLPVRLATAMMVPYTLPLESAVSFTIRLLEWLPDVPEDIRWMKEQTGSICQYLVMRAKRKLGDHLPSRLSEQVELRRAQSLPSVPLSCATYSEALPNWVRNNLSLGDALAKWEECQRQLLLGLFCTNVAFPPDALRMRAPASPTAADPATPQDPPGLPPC

[2] = target: T4, Myc-ATGL (adipose triglyceride lipase), wild type (not stated (human or mouse cDNA cloned)) (UniProt Q8BJ56); experiment: co-IP; HeLa cells co-transfected with HIG2-FLAG and Myc-ATGL or deletion mutants; immunoprecipitation by anti-Myc gels, blots with anti-FLAG and anti-Myc; lysis buffer 50 mM Tris-HCl pH 7.4, 150 mM NaCl, 1% Triton X-100, 1 mM DTT, 4 hr at 4°C
T4 sequence: T3 sequence

[3] = target: T5, Myc-ATGLΔHD (not stated (human or mouse cDNA cloned)) (UniProt Q8BJ56); experiment: as above
T5 sequence: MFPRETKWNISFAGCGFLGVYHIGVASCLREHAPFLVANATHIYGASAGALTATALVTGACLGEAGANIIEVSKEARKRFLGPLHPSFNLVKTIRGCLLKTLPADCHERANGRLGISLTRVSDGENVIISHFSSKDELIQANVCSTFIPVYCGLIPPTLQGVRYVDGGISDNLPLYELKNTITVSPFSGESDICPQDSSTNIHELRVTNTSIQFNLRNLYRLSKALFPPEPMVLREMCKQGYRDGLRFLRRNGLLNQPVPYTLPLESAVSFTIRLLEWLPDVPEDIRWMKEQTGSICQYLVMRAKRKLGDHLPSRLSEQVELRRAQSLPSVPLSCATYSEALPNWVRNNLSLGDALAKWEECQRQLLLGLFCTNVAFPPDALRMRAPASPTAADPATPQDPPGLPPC

[4] = target: T6, Myc-ATGLΔPT (not stated (human or mouse cDNA cloned)) (UniProt Q8BJ56); experiment: as above
T6 sequence: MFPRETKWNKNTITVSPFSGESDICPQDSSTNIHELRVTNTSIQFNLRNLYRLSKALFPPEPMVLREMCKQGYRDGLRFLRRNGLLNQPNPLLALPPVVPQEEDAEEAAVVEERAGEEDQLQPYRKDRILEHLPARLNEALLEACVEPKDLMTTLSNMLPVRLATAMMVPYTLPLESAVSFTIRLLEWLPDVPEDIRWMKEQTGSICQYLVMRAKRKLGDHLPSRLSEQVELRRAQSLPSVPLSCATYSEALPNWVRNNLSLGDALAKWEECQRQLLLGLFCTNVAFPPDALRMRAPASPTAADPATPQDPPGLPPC

binding (HIG2-FLAG WT (human)): binds
binding (HIG2-FLAG ∆7–11 (human)): no binding
B1: Myc-ATGL (adipose triglyceride lipase), wild type (enzyme, UniProt Q8BJ56 1-486)
chain: T3 sequence

binding [1]: binds
B2: HIG2 (hypoxia-inducible gene 2 protein), endogenous (protein, UniProt Q9Y5L2 1-63)
chain: T1 sequence

binding [2]: binds
binding [3]: binds
binding [4]: no binding
B3: HIG2-FLAG WT (protein, UniProt Q9Y5L2 1-63)
chain: T1 sequence

— publication PMC5739538
